± gives the standard deviation of the averaged measurements. The full ranking holds about 4,000 sequences; the median of “arbitrary fluorescence units” is about 830, and the highest 2% start at about 6,500. This part holds few or none of the hits.
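Note: Full-length recombinant human RUNX1 bound to double-stranded DNA microarray spots, detected with an Alexa488-labelled secondary antibody after the anti-RUNX1 primary, read as scanned spot fluorescence.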

For the test, the target named is RUNX1 (UniProt Q01196). Nature of the test: RUNX1 binding intensity (PBM fluorescence), RUNX1 alone (arbitrary fluorescence units); higher = stronger binding. The conditions noted are these: RUNX1 concentration 2 nM; ETS1 concentration 0 nM. The protocol: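 gcPBM on 36-bp genomic-derived probes (partner site mutated) containing one RUNX1 site and no ETS1 site. Recombinant human RUNX1 (2 nM) was incubated alone or with ETS1 (25 nM) and detected by anti-RUNX1 antibody fluorescence. Values are medians over 4 replicate spots (not normalised). The probes sit in constant array flanks that are not printed.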
Sequence of UniProt Q01196 (Q01196 whole entry): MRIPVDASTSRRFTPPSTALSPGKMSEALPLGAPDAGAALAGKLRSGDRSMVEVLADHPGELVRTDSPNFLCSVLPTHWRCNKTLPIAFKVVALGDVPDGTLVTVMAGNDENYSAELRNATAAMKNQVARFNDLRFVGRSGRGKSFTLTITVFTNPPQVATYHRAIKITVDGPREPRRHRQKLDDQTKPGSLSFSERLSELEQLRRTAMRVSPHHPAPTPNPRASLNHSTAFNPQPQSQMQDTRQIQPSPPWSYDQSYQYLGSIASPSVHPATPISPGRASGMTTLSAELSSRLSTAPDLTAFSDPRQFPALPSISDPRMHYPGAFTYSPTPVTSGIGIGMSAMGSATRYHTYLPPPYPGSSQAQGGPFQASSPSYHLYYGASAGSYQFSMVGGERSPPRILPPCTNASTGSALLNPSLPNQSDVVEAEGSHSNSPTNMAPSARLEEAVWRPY
CTCTGGCGCGGGGCCGCAGCCTTTCAGCCACCAGGC registered an RUNX1 binding intensity of 787. The figure for GAGCCTGTTGCTTCAGGTTCAGAGCCCACATGCTGG is 759; for GGCCAACCAAAAACCACTGGCAGGAGGTGGGGCAAC it is 852. The result for CTCTTACGGCCGCGAGGAGCGCGACTGCGGCCCCTG reads 833; that for CTCCGCGGTCCCCTGCAGGCACCGAGGGCTGAACCA, 800. AAAGTCAAAACCACAGGAACAGAAAACTGTTCACTG yielded an RUNX1 binding intensity of 1730. The figure for TAGGTCTGTGGGTGACGTCTGTTTACTGTGATTGAA is 842; for GGGCGGGTAGGCGGTTTGTATCCAGGCTGTGAGGTG it is 828; for AGCTCCCAGACCACAGAGGTTTTGCTGCATGGAGGA it is 1250. The figure for CTCCACCTGATGCAGCAATGAAGGCCGCAGGAATGG is 757; for AGACGGGACCTGAAGCCGGGCCGCAGGCGGCCGGGC it is 688; for TGGAGGAGACCACACCTTCAAGCAACAACCTCTCCT it is 834. The result for GGGAAGGACTGCGGCACAAGGGACTTTCGGCTCTTG reads 705; that for GGTTCCAGTGTCCCGTTTTGTTGATGTGGTAAATTT, 1090; that for GACTTCAGTGGTTAACTCTGGAGAGCAGGCAATGGG, 894. GTTGGCTGATTCCCGGTGCTGTGGGGGTTAAGTCTC had an RUNX1 binding intensity of 787.

In turn, CTTTAAGGAGGCGCAAAAGTTAACCGCGATGGGCAG registered an RUNX1 binding intensity of 918. The figure for TTCGGCCGCCGCCACCACACACATCCAGGTCCCCGC is 1010; for TTCTATGCTGCCTTGCATGTCTTTAACCACACTGAG it is 1170. The result for GGGGCAGCTTACGGCAGGAGAGCCCGCATTCACGGC reads 1230. The result for TTTCCAGAGGCTGTAGCTTCTGCGGGAGAGCTTCAA reads 666. Sequence GCCGGACCCTGCGGCCCCGGGACTGGACACCAGGCG gave an RUNX1 binding intensity of 707. The result for TTGCCGTAACCACTTTATCCACCTCCTTTTTCACGA reads 2720; that for AGCGCTCCCTTGCCGAGAGGCTGGAGCTGCGGCACC, 685. The figure for CTAACCCACACCAGCGCGTTGCCTCGGCAACATCGC is 807. For TTCAGGTGACTCCCGGCCGGACCGCTGAGGACGCGG, the RUNX1 binding intensity worked out at 654 ± 37. The result for ACACCCCAGCAAGTGGCAGAGACCACAACAAGTCAG reads 798; that for GAAAGAGGTTTGAGGTTAGTGCTTCATGTCTCCACA, 802. The result for CGGCTGGCAGGCAGTGGCCACTTGAACCGCAGATGC reads 926; that for GCTGCGGCCAAGTGCAGGAACCTGACGAAGGAACTG, 822; that for CCTGGGTGTTTGAGGTTCGTTCATTCTGAGGCATAA, 876. The result for GTATGGGAGGTGATCTGGCTGCAAACCGCAAGAGAG reads 8250; that for TCTTGTTTCTTCAGTTACCGGAGCGCGGTCACGTGA, 875. On to TGCTTCCCTTCAGTGCCGACAGCGAAAACCGCTGCC, for which the RUNX1 binding intensity came to 795. The result for AAGTGGAGAGCGGCAGTGAGCTGTGGGTGACTGCAG reads 649; that for ACAATGAGTGGTTTTCTGAAGTGTCGGACCATCTGT, 845. The figure for GCAGGCGAAGGCCGAACTGGCGTGGTCAAACCAACC is 780; for GCTGCGGCCCCCTCCCAAAACCCGGGGAGGTGGATT it is 779; for CAGGCCGCAGGGGAGAGGCACGTCCATGAAGATCTA it is 735. The result for GGCTCTGCCGACCGCTGACAGGACGACGCTGACGAC reads 772; that for CAGCTGACATGAAGGAGAGAACCACAGACAGTGCGA, 803. CCCATCCATACGCCTCCAAAGTAACCTCAAGAATTT displayed an RUNX1 binding intensity of 1600. As for CTACCTCCTGTGGTGACTCCACCCCTTCATGCGTCC, the RUNX1 binding intensity is 1200. CCCCTCGCCCCTCCGCATTGCGGGTTACTTCGGTTG yielded an RUNX1 binding intensity of 1650. The figure for CGAGCCGCCTTGCTCCCCGGCCCACAGCCCAGCACT is 889; for TTCAGCAAATGCAAACGGCTGCAGAGACCGCAGAGG it is 862; for CCTGCTTGCATGTGGTTCAGACATGCTGAGGTGGTA it is 764.

Sequence AATCCACCTCCCCGGGTTTTGGGAGGGGGCCGCAGC had an RUNX1 binding intensity of 839. The figure for CTGCTTGTGGGTGGAGGGGAGCCTCCGAAGGAGGCC is 897; for GGGCGCGGTTGCCGGGGAACGCGATTCCCGCCGCAC it is 747. As to CCGAGGATTGTGGGAGATGTAGTTTTTCAGGCGCCT, the RUNX1 binding intensity turned out to be 826. The result for TTTTCTCTAAACCACATCAAAACCAGGCAACCAGTC reads 1760; that for GATGGTGGTTTTGGCAGAGGCCACACCCTGTCTGTT, 1000. The result for GTGGGACCTGATTCCTTAGCCCACAAGATGCAGAGC reads 845; that for TGGTCCTTTGTGGGCGTGCTGTCAGAAAGATGACAG, 737. The figure for CTTGGCGGCAGTGGTGTGGGGGAGGTAGCCCGCAGT is 752. On to GCTCATTTGCTGGCCGCTCCTGGGCTTCGCGGTGAG, for which the RUNX1 binding intensity came out at 773.

GTGCGAGGGCGGTAAGTGGAAGGCAGCAGCGCATGG gave an RUNX1 binding intensity of 730. Turning to AGCCACACCCTGGACAAAAGCTGTGGTCTAGTAACC, the RUNX1 binding intensity came to 955. The figure for CTTCTGGCCGAAGCGGCACAAGCCGCAGTACAGCGC is 705; for TGACTCCCGGTCCGTAGTGGGGCCTGCGGTGGGAGT it is 753. Regarding ACAGCAAATGTTAGAGGTTGAGTTAGCGGTTATGAG, the RUNX1 binding intensity was 848. The sequence CCCACCGCGCCCAGCCCTGCCACTCTCGGGAATGGG yielded an RUNX1 binding intensity of 941. The result for CGCCCACCACCTCCTGCTGGCGGTCGGCAAGCGTTG reads 897; that for CAGGCCTGTGGTTTCTGTAACAGCAAGTGATTTAGA, 3550; that for CAAGCTCTGCGGCCTTCGTTCCTCTCTTCAGTTTGC, 1110. GTTTGGAGCAAGGACCCAGGGGCCCTTGTGGCTCAC registered an RUNX1 binding intensity of 685 ± 32. The result for AGGTCTTGTGGCTCATTTTGTACCCACTTGCTGGGC reads 729; that for GACCAGGCAACGGGGCGTGGCGGCCGCCGTGGTTAC, 865.

Sequence GGAGGCGAAAGTGGAGGTTGTTGTGGCTCCGAGGGC yielded an RUNX1 binding intensity of 714. The result for TCCGCCCGCGGCTGCTGAGAACCGCAGCTGCACAAG reads 892; that for CCTTACTTTCGGGGTCGGCCCCGCCCGCAAGCGCCG, 909; that for CTCGGCCACCGCGTGCTCCACTCGGCAGTGGTGCCG, 756.

As to TCCGTGCGGTGCAGCAGGTCGGTAGGCGGGAACTGG, the RUNX1 binding intensity came to 694. The figure for TTTGTGGTCTCATGGAAAGAGCACACGATGCAGAAT is 826; for GACCTGCCTTCAGGCCTCCGTCACATGACCGCACAG it is 973. The figure for CCTCACTAACATGCTGTTGAGGTGTCCCACAAACCA is 850. The figure for GCTCTGGCCGAAGATGTCCCTGCGGTGCAGCTGCCG is 796; for CCCAAGCTACTGAAGTTAAACCTCAAACATGAAATC it is 910; for TTAGGACCCAGCGGTGGGCTCTCCGACAGGGGAAGG it is 661.

For the origin of these results see the supplement of paper PMC10681739.
